In ChEMBL document CHEMBL1157539, “Thousands of chemical starting points for antimalarial lead identification” (Nature, 2010) one finds IFI data, which are given here for 60 compounds.

The full ranking holds about 13,000 compounds; the median of “IFI” is about 4, and the highest 2% start at about 17. Some of the results follow.

A short description of this test: GSK_TCMDC: Inhibition Frequency Index (IFI). The number of non-kinase HTS assays where a compound showed > 50 % inhibition, expressed as a percentage of the number of such assays in which the compound was tested (-0 is zero). Format: functional.
As to `N#Cc1ccc2c(c1)CCN(CCC1CCC(NC(=O)/C=C/c3ccc4[nH]ccc4c3)CC1)CC2` (stereo not given), the IFI was found to be 4.41%. Regarding `Oc1ccccc1-c1nc2cccnc2n1CCc1cccc(C(F)(F)F)c1`, the IFI is 1.57%. `Cn1cc(-c2ccccc2C(=O)O)c(=O)c2cc(Cl)ccc21` yielded an IFI of 1.74%.

On to `Cc1cc(N[C@@H](CC(C)C)C(=O)NCCc2ccccc2)nc(NCc2ccccc2C)n1`, for which the IFI came to 12.2%. The value for `FC(F)(F)c1cccc(Nc2nc(-c3ccccc3)nc3ncccc23)c1` was 0.75%; that for `CC(=O)Nc1nc(C(=O)Nc2cccc(-c3ccc(-c4nc5cc(F)ccc5[nH]4)cc3)c2)cs1` was 6.09%; that for `CCCCCCCC1=NN2C(=N)C(=Cc3cc(Br)c(OCc4ccc(F)cc4)c(OCC)c3)C(=O)N=C2S1` was 0.75%. As for `CCOc1ccc(C(=O)Nc2nonc2-c2ccc(OC)c(OC)c2)cc1`, the figure is 2.04%. `COc1ccc(C(=O)CCC(=O)N(Cc2ccc(-c3ccc(CNCCc4ccc(S(C)(=O)=O)cc4)cn3)cc2)Cc2ccc3c(c2)OCO3)cc1F` showed an IFI of 8.39%. The value for `O=C(CC(=O)C(F)(F)F)c1ccccc1[N+](=O)[O-]` was 5.07%. The value for `Clc1ccc(CNc2nc(NCCc3c[nH]cn3)nc(N3CCCC4CCCCC43)n2)cc1` (stereo not given) was 3.73%. The value for `CCCc1nc2c(N3CC(NC(=O)/C=C/c4ccccc4)C3)cccc2n1C1CC1` was 0%; that for `C=CCn1c(Sc2ccc(C#N)c([N+](=O)[O-])c2)nnc1-c1ccc(OC)cc1` was 2.16%; that for `COc1ccc(-c2ccc(NC(=O)c3ccc(C#N)cc3)cc2)cc1CN1CCNCC1` was 2%. On to `Cc1cc(NC(=O)c2cc(S(=O)(=O)N3CCCCC3)ccc2C)no1`, for which the IFI was -0%. `COc1ccc2[nH]ccc(=NN=Cc3ccc(F)cc3)c2c1` came in with an IFI of 2.22%. Regarding `CN1CCC(N2CCC(Oc3cccc(C(=O)NCCCC4CCCC4)c3)CC2)CC1`, the IFI stood at 14.3%. As for `O=C(Nc1ccc(Cn2ncc(N3CCCNCC3)c(Cl)c2=O)cc1)Nc1cc(Cl)cc(Cl)c1`, the figure is 2.94%; as for `COc1ccc(OC)c(NC(=O)C2c3ccccc3C(=O)N(CC(C)C)C2c2cccs2)c1` (stereo not given), 0%. On to `Cc1cc(=NN=Cc2ccc(F)cc2)c2ccc(F)cc2[nH]1`, for which the IFI amounted to 0.71%. For the compound `Cc1nc(C)c(-c2ccc(C(F)(F)F)cc2)c(O)c1Br`, the IFI stood at 0%. The value for `CCCCCN1CCCC1CNS(=O)(=O)c1ccc(C(=O)Nc2cccc(C(F)(F)F)c2)cc1` (stereo not given) was 4.88%; that for `CC(=O)Nc1ccc(C(=O)Nc2ccc(-c3csc(-c4nc5ccccc5[nH]4)c3)cc2)cn1` was 0.9%; that for `CCN1CCN(c2cc(C)c3cc(NC(=O)c4ccc(OC)c(OC)c4)ccc3n2)CC1` was 2.26%. The value for `COc1ccc2[nH]c(C)cc(=NN=Cc3ccncc3)c2c1` was 0.71%; that for `O=c1ccccn1CCCC1CCCCN1` (stereo not given) was 0%. As for `COc1ccc2nccc(CCC3(O)CCC(NCc4cc5c(cc4F)SCC(=O)N5)CC3)c2c1` (stereo not given), the figure is 3.6%. For the compound `O=C(Nc1ccc(NC2=NCCN2)cc1)Nc1ccc(NC2=NCCN2)cc1`, the IFI worked out at 1.52%.

`N#Cc1ccc(NC(=O)c2ccc(Cc3ccc4c(c3)CCN(C3CCC3)CC4)cn2)cc1` registered an IFI of 8.41%. As for `O=C(Nc1cccc(-c2cccc(-c3nc4ccccc4[nH]3)c2)c1)c1ccncc1`, the figure is 8.33%; as for `CSC1=NC(=Nc2c(C)cccc2C)C2(CCC(C(C)(C)C)CC2)N1c1ccc(O)cc1` (stereo not given), 7.3%.

In turn, `COc1cccc(C2=CC(c3ccccc3)n3ncc(C(=O)Nc4ccc(Cl)cc4)c3N2)c1` (stereo not given) yielded an IFI of 2.67%. Consider `NC(=O)c1cc2nc(NC3CCC3)nc(Nc3cccc4[nH]ncc34)c2[nH]1`, for which the IFI is 3.57%. The compound `Cc1[nH]c2ccccc2c1C=NNc1nc(=Nc2ccccc2)[nH]c(=Nc2ccccc2)[nH]1` showed an IFI of 2.94%. As for `COc1nc(NCC(C)C)nc(Oc2ccc(=O)n(Cc3ccccc3)n2)n1`, the figure is -0%; as for `CCC1CCc2cc(N)cc(-c3nc4c(c(C)nn4CC)c(=O)[nH]3)c2O1` (stereo not given), 3.7%.

For the compound `COc1ccc2nccc([C@@H](O)CN3CCC(NCc4cc5oc(=O)[nH]c5cc4Cl)CC3)c2c1`, the IFI is 2.86%.

The compound `Cc1cccc2nc(-c3ccc(-c4cccc(C(=O)N5CCCCC5C(C)O)c4)s3)[nH]c12` (stereo not given) gave an IFI of 3.81%. The compound `O=C(Nc1ccc(Br)cc1)Nc1ccc(Cn2ncc(N3CCCNCC3)c(Cl)c2=O)cc1` showed an IFI of 7.35%.

Compound `Cc1ccc(Oc2ccc(NC(=O)CNc3ccccc3N3CCCC3=O)cc2)cc1` showed an IFI of 1.61%.

As for `CN1CCN(Cc2ccc(-c3cc4c(Nc5ccc(OCc6cccc(F)c6)c(Cl)c5)ncnc4s3)[nH]2)CC1`, the IFI was found to be 5.22%. For `COc1cc2c(cc1OC)C(c1ccc(Br)cc1)CN(C)CC2` (stereo not given), the IFI was 1.49%. The value for `CCc1c(C(=O)NC2CCC(N3CCC(c4ccccc4C)CC3)CC2)[nH]c2ccc(OC)cc12` (stereo not given) was 13.1%; that for `COc1ccc(CCN(C)CCCOc2ccc(NC(=O)c3cccc4c(=O)c5ccccc5[nH]c34)cc2)cc1OC` was 10.3%.

The compound `N=C(N)c1ccc(-c2cc(-c3cccc(C(=N)N)c3)on2)cc1` registered an IFI of -0%.

In turn, `COc1ccc2ncc(Cl)c(NCC3(O)CCC(NCc4ccc5c(n4)NC(=O)CS5)CC3)c2n1` (stereo not given) registered an IFI of 6.77%. Consider `O=[N+]([O-])c1cccc(-n2nc(NCc3ccc(Cl)cc3)nc2-c2ccc(F)c(C(F)(F)F)c2)c1`, for which the IFI was determined as 2.44%. The value for `Cc1ccc(NC(=O)Nc2ccc(Cn3ncc(N4CCCNCC4)c(Cl)c3=O)cc2)cc1` was 5.88%; that for `Oc1ccccc1CCNCC1CCc2ccccc2C1` (stereo not given) was 1.47%; that for `CCCN(CC1CC1)c1ncc(-c2cccc(CNCc3ccccc3O)c2)cn1` was 11.6%. Regarding `Cc1cc(NC(=O)c2coc3cc(F)c(N4CC(C)N(C)C(C)C4)cc23)ccc1-n1ccnc1` (stereo not given), the IFI was found to be 1.42%. Regarding `COc1cccc(-c2cc3c(NCc4ccncc4)nccc3s2)c1`, the IFI worked out at 5.07%. The compound `O=C(Nc1ccccc1-c1nc2ccccc2s1)C(Cl)(Cl)Cl` returned an IFI of 2.78%. As for `COc1ccc2[nH]c(C(=O)Nc3cccc(-c4ccc(CN(C)C)cc4)c3)cc2c1`, the figure is 3.33%; as for `CC(C)(C)C1CCc2onc(C(=O)Nc3cc(Cl)ccc3O)c2C1` (stereo not given), 4.9%.

`O=C(Cn1cc(C(F)(F)F)cc(Cl)c1=O)N1CCN(S(=O)(=O)c2ccc(Cl)cc2)CC1` showed an IFI of -0%.

Compound `Clc1ccc(-c2cnc3ccc(NCCc4cccnc4)nn23)cc1` returned an IFI of 6.82%. Take `CC(C)c1ccc(CN2CCCCC(NC(=O)c3cc(-c4ccccc4Cl)cs3)C2)cc1` (stereo not given): the IFI was found to be 5.45%. The value for `O=C(N[C@H]1CCCC[C@H]1C(=O)O)c1ccccc1` was 0.75%. The value for `COc1cc2nccc(Nc3cc(C)cc(O)c3)c2cc1OC` was 2.86%.
